In patent publication US20250179172A1 (HAINAN SIMCERE ZAIMING PHARMACEUTICAL, published 2025):

T1: human CD5 (Arg25-Pro372)-His protein (Acro, Cat. No. CD5-H52H5) (human, UniProt P06127 25-372)
T1 construct: range 25-372; also called human CD5-His; hCD5-His; not shown: His tag
T1 sequence (looked up): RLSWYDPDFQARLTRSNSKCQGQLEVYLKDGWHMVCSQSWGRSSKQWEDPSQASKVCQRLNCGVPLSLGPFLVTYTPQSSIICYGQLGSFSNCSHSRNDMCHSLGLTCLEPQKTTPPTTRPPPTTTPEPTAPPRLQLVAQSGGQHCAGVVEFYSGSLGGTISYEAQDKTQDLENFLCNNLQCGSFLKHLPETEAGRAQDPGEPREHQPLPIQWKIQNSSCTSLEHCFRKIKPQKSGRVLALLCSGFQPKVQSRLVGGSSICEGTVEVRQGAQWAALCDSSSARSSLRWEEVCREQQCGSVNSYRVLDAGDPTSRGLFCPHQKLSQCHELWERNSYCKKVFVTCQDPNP

B1: S005-NB144-4 VHH-hFc (Fc fusion)
chain: EVQVVESGGGLVQAGGSLRLSCAASGSIFSINAMGWYRQAPGKEREVVAAISNGGNTYYEDSVMGRFTISRDNAKGTLYLQMNGLKPEDTAVYYCNADTVVGGGLLTEVWGQGTLVTVSS[human IgG1 Fc with changes not printed]
notes: VHH fused to human IgG1 Fc; no linker stated
B2: H65 scFv-hFc (Fc fusion)
chain: NIQLVQSGPELKKPGETVKISCKASGYTFTNYGMNWVKQAPGKGLRWMGWINTHTGEPTYADDFKGRFAFSLETSASTAYLQINNLKNEDTATYFCTRRGYDWYFDVWGAGTTVTVSSGGGGSGGGGSGGGGSDIKMTQSPSSMYASLGERVTITCKASQDINSYLSWFHHKPGKSPKTLIYRANRLVDGVPSRFSGSGSGQDYSLTISSLDYEDMGIYYCQQYDESPWTFGGGTKLEMK[human IgG1 Fc with changes not printed]
notes: also called H65 antibody
B3: S005-NB144-7 VHH-hFc (Fc fusion)
chain: EVQVVESGGGLVQAGGSLRLSCAASGSIFSINLLGWYRQAPGKERESVAILSSGGSTYYADSVKGRFTISRDNVKNMLYLQMNSLKPEDTAVYYCNAVGGIATLRDYWGQGTQVTVSS[human IgG1 Fc with changes not printed]
notes: as for B1
B4: S005-NB144-31 VHH-hFc (Fc fusion)
chain: EVQVVESGGGLVQPGGSLRLSCAASGFTLDYYAIGWFRQAPGKEREGLSCISTSGGSTNYADSVKGRFTISRDNAKNTVYLQMNSLKPEDTAVYYCAASSFWDCAVVGTGSPKTGHLESVFGSWGQGTQVTVSS[human IgG1 Fc with changes not printed]
notes: VHH fused to human IgG1 Fc; no linker stated; also called S002-NB144-31
B5: S005-NB144-6 VHH-hFc (Fc fusion)
chain: QVQLVESGGGLVQAGGSLRLSCAASGSIFSISVMGWYRQAPGKERETVAVISSGGSTYYADSVKGRFTISRDNAKNTLYLQMNSLKPEDTAVYYCNADFETASGSPLYESWGQGTQVTVSS[human IgG1 Fc with changes not printed]
notes: as for B1
B6: S005-NB144-3 VHH-hFc (Fc fusion)
chain: QLQLVESGGGLVQPGGSLRLSCAASGFTFSSYAMSWYRQAPGKERELVAAITSAGGSTTYADSVKDRFTISRDNAKNTVSLQMNSLKPEDTAVYYCNAYCTGYVCHEGGYDYWGQGTQVTVSS[human IgG1 Fc with changes not printed]
notes: VHH variable region recombined into vector BI3.4-huIgG1 with signal peptide and human IgG1 Fc; no linker between VHH and Fc is stated
B7: S005-NB145-3 VHH-hFc (Fc fusion)
chain: QVQLVESGGGLVQPGGSLRLSCAASGFSLDYYAIGWFRQAPGKEREGVSYISPSDGRTYYADSVKGRFTISRDNAKNTVYLQMNSLKPEDTAVYYCATDWGSTSFDYGLKLSPTQYGYWGQGTQVTVSS[human IgG1 Fc with changes not printed]
notes: as for B1
B8: S005-NB145-92 VHH-hFc (Fc fusion)
chain: EVQLVESGGGLVQPGGSLRLSCAASGFSLDYYAIGWFRQAPGKEREGVSYISASDGSTYYADSVKGRFTISRDNAKNTVYLQMNSLKPEDTAVYYCATDWGSGSFNYGLRLSPTQYDYWGQGTQVTVSS[human IgG1 Fc with changes not printed]
notes: as for B1
B9: S005-NB144-73 VHH-hFc (Fc fusion)
chain: EVQVVESGGGLVQAGGSLRLSCAASGDTICISAMYWYRQAPGKAREMVAAITSGGSTYYEDSVMGRFTIFRENAKNTVYLQMNSLKPEDTAVYYCNADIAGHNCSGYLKEYWGQGTQVTVSA[human IgG1 Fc with changes not printed]
notes: VHH fused to human IgG1 Fc; no linker stated; also called S002-NB144-73
B10: S005-NB145-22 VHH-hFc (Fc fusion)
chain: QVQLVESGGGLVQAGGSLRLSCAVSGRTLSTVVVGWFRQTPGREREFVAVSRSGGATGYADSVKDRFTISRDNAKNTVALQMNSLKPEDTAVYYCAGRGSGLYGSSWYNQIQEYDGWGQGTQVTVSS[human IgG1 Fc with changes not printed]
notes: as for B1
B11: S005-NB145-74 VHH-hFc (Fc fusion)
chain: EVQLVESGGGLVQAGGSLRLSCAASESTFSITAMGWYRQAPGKQRELVAAITSPGGSTNYADSVKGRFTISRDNAKNTMLLQMNSLKPEDTAVYYCNADINHGSGYYTVSWGQGTQVTVSS[human IgG1 Fc with changes not printed]
notes: as for B1
B12: S005-NB144-43 VHH-hFc (Fc fusion)
chain: QVQLVESGGGLVQPGGSLRLSCAASGFTWDYYAIGWFRQAPGKEREGVSCIDSSGGSINYLDSVKGRFTVSRDNAKNTVYLQMDSLKPEDTAIYYCAASSYWDCAVPDTGSPKTGHLESYFGSWGQGTQVIVSS[human IgG1 Fc with changes not printed]
notes: VHH fused to human IgG1 Fc; no linker stated; also called S002-NB144-43

molecular target: T1, human CD5 (Arg25-Pro372)-His protein …; assay: ELISA on hCD5-His, antibody 0.0001 nM
Description: (§1) The binding activity of the H65 antibody prepared above with human CD5 protein was subjected to ELISA assay. A purchased commercial antigen (human CD5-His) was diluted with PBS to obtain a final concentration of 2 μg/mL, and then added to a 96-well ELISA plate with 100 µL/well. The plate was sealed with a plastic film and incubated at 4° C. over the night, washed twice with PBS in the next day, added with a blocking solution [PBS+2% (w/w) BSA] and blocked at room temperature for 2 h. The blocking solution was drained out, and 100 nM of the H65 antibody or negative control antibody hIgG1 after gradient dilution was added, namely, the obtained product was the antibody Anti-HEL-hIgG1 against hen egg lysozyme (purchased from Biointron, Cat. No. B117901) with 50 μl per well. After incubation for 2 h at 37° C., the plate was washed for 3 times with PBS. A secondary antibody labeled with HRP (horseradish peroxidase) (A0170, purchased from Sigma) was added. After incubation for 2 h at 37° C., the plate was washed for 5 times with PBS. A TMB substrate was added with 50 μL/well and incubated at room temperature for 30 min, then a stop solution (1.0 N HCl) was added with 50 μL/well.
(§2) To assay the binding activity of VHH-hFc to human CD5 protein, ELISA assay was performed according to the method described in Example 2.2. […] IgG control is hIgG1, and data in the table are values of OD_{450 nm}.

Point of comparison: B12, OD450 0.09 OD450. Against it:
- B1 — the same, 0.09 OD450
- B2 — lower, 0.07 OD450
- B3 — higher, 0.59 OD450
- B4 — higher, 0.16 OD450
- B5 — higher, 0.11 OD450
- B6 — the same, 0.09 OD450
- B7 — higher, 0.1 OD450
- B8 — higher, 0.14 OD450
- B9 — lower, 0.07 OD450
- B10 — the same, 0.09 OD450
- B11 — lower, 0.08 OD450

molecular target: T1, human CD5 (Arg25-Pro372)-His protein …; assay: ELISA on hCD5-His, antibody 0.1 nM
Description: as §1, §2

Point of comparison: B5, OD450 0.9 OD450. Against it:
- B1 — higher, 1.01 OD450
- B2 — lower, 0.64 OD450
- B3 — higher, 1.17 OD450
- B4 — higher, 1.02 OD450
- B6 — lower, 0.79 OD450
- B7 — lower, 0.61 OD450
- B8 — lower, 0.87 OD450
- B9 — lower, 0.48 OD450
- B10 — lower, 0.59 OD450
- B11 — lower, 0.85 OD450
- B12 — lower, 0.79 OD450

molecular target: T1, human CD5 (Arg25-Pro372)-His protein …; assay: ELISA on hCD5-His, antibody 10 nM
Description: as §1, §2

Point of comparison: B7, OD450 1.91 OD450. Against it:
- B1 — higher, 3 OD450
- B2 — higher, 2.35 OD450
- B3 — lower, 1.89 OD450
- B4 — higher, 2.07 OD450
- B5 — higher, 2.28 OD450
- B6 — higher, 2.05 OD450
- B8 — higher, 2.04 OD450
- B9 — higher, 2.24 OD450
- B10 — lower, 1.83 OD450
- B11 — higher, 2.08 OD450
- B12 — higher, 2.16 OD450

molecular target: T1, human CD5 (Arg25-Pro372)-His protein …; assay: ELISA on hCD5-His, antibody 100 nM
Description: as §1, §2

Point of comparison: B7, OD450 2.43 OD450. Against it:
- B1 — higher, 3.18 OD450
- B2 — higher, 2.82 OD450
- B3 — higher, 2.45 OD450
- B4 — higher, 2.67 OD450
- B5 — higher, 2.66 OD450
- B6 — lower, 2.34 OD450
- B8 — higher, 2.6 OD450
- B9 — lower, 2.4 OD450
- B10 — lower, 2.16 OD450
- B11 — the same, 2.43 OD450
- B12 — higher, 2.5 OD450

molecular target: T1, human CD5 (Arg25-Pro372)-His protein …; assay: ELISA on hCD5-His, antibody 1 nM
Description: as §1, §2

Point of comparison: B2, OD450 1.87 OD450. Against it:
- B1 — higher, 2.77 OD450
- B3 — lower, 1.55 OD450
- B4 — lower, 1.84 OD450
- B5 — lower, 1.84 OD450
- B6 — lower, 1.7 OD450
- B7 — lower, 1.83 OD450
- B8 — lower, 1.78 OD450
- B9 — lower, 1.65 OD450
- B10 — lower, 1.67 OD450
- B11 — higher, 1.92 OD450
- B12 — lower, 1.84 OD450

molecular target: T1, human CD5 (Arg25-Pro372)-His protein …; assay: ELISA, antibody coated at 2 µg/mL, human CD5-his titrated from 30 µg/mL; the EC80 is a concentration of CD5-his
Description: VHH-hFc was subjected to epitope classification with competitive ELISA. ELISA plates were coated with 2 μg/mL antibodies according to the method described in Example 4.1; the human CD5-his protein was subjected to a gradient dilution from 30 μg/mL, and EC₈₀ values (Table 13) were calculated and applied to the next step of epitope analysis. ELISA plates were coated with 2 μg/mL antibodies; after 25 μg/mL of antibodies to be tested were added, a hCD5-his protein having a EC₈₀ concentration corresponding to each of the antibodies to be tested was then added for incubation for 2 h; the plates were washed for 5 times with PBS and HRP-labeled anti-His antibodies (GenScript, Cat. No. A00612) were added for assay. The coated antibody may bind to the antibody-to be tested-hCD5-his antigen complex in the solution if no competitive relation exists between the coated antibody and the antibody-to be tested in the solution. Moreover, OD_{450 nm} absorbance was detected and an inhibition ratio between each pair of antibodies was calculated according to the OD_{450 nm} absorbance (FIGS. 13A-3B).

Point of comparison: B9, EC80 0.02 µg/mL. Against it:
- B1 — 5-fold higher, 0.1 µg/mL
- B2 — 12-fold higher, 0.25 µg/mL
- B3 — 34-fold higher, 0.67 µg/mL
- B4 — 5.5-fold higher, 0.11 µg/mL
- B5 — 80-fold higher, 1.59 µg/mL
- B6 — 7.5-fold higher, 0.15 µg/mL
- B7 — 3.5-fold higher, 0.07 µg/mL
- B8 — 12-fold higher, 0.23 µg/mL
- B10 — 3-fold higher, 0.06 µg/mL
- B11 — 29-fold higher, 0.59 µg/mL
- B12 — 1.5-fold higher, 0.03 µg/mL
